Test results reported in ChEMBL document CHEMBL4888484, “Replenishing the malaria drug discovery pipeline: Screening and hit evaluation of the MMV Hit Generation Library 1 (HGL1) against asexual blood stage Plasmodium falciparum ,using a nano luciferase reporter read-out” (2022).
About 540 (0.36%) of roughly 150,000 compounds showed an effect of 50% or more. The list shows a part of the results.

These molecules were tested on Plasmodium falciparum (assay: Primary screen in NF54 nanoGlo assay, in single point, at 2uM, 72h; a lower Z score goes with more inhibition). Details: timepoint 72 hour.
Format: functional, Erythrocyte

Q: How did the “% Inhibition” value turn out when `CCCCn1nc(C2CC2)nc1C1(c2ccccc2)CC1` was run?
A: Its value is -1%.

Q: What about the Z score of the same molecule?
A: The Z score was 0.12.

Q: How did the “% Inhibition” value turn out when `Cc1nc2c([nH]1)CN(C(=O)c1cn(C)c3ccccc13)CC2` was run?
A: The value was -5%.

Q: What about the Z score of the same molecule?
A: The Z score was 0.86.

Q: Which “% Inhibition” value does the source give for `Cc1cccc(NC(=O)N2CCC(n3cc(-c4ccccc4)nn3)CC2)c1C` here?
A: The value was 12%.

Q: And the Z score?
A: Its Z score is -1.57.

Q: Which “% Inhibition” value does the source give for `CC(C)Nc1ncc(C(=O)N2CCc3c(Cl)cccc3C2)cn1` here?
A: The value was -5%.

Q: And the Z score?
A: The Z score was 1.08.

Q: How did the “% Inhibition” value turn out when `COc1ccc(CNC(=O)Cn2ccnc2-c2ccnc(N3CCC(C)CC3)c2)cc1` was run?
A: The value was 1%.

Q: And the Z score?
A: The Z score was -0.13.

Q: What does the source list for `COc1ccc(C(=O)N[C@H](C(=O)NC(C)(C)C)C(C)C)cc1`?
A: % Inhibition: -8%; Z score: 1.32

Q: Which “% Inhibition” value does the source give for `CCOC(=O)c1ccc2nc(C)cc(Nc3ccc(Cl)cc3C)c2c1` here?
A: Its value is 19%.

Q: And the Z score?
A: Its Z score is -1.72.

Q: For `COC1(c2noc(-c3cc4c(s3)CCOC4)n2)CCCCC1`, which “% Inhibition” value is on record?
A: The value was -7%.

Q: And the Z score?
A: Its Z score is 1.21.

Q: How did the “% Inhibition” value turn out when `C[C@H](NC(=O)c1ccncc1O)c1noc(Cc2ccccc2)n1` was run?
A: Its value is -2%.

Q: And the Z score?
A: Its Z score is 0.24.

Q: For `Cc1ccc(N[C@H]2C[C@@H](C)Nc3ccc(C)cc32)cc1`, which “% Inhibition” value is on record?
A: The value was -3%.

Q: And the Z score?
A: The Z score was 0.62.

Q: Which “% Inhibition” value does the source give for `Cc1cc(-c2nc(CS(=O)(=O)NC3CC3)no2)n[nH]1` here?
A: Its value is -5%.

Q: And the Z score?
A: Its Z score is 0.76.

Q: How did the “% Inhibition” value turn out when `Clc1ccc(CNc2nc(-c3cccs3)n[nH]2)cc1` was run?
A: Its value is -40%.

Q: And the Z score?
A: The Z score was 4.7.

Q: What does the source list for `O=C(NCc1cccnc1N1CCOCC1)c1cccs1`?
A: % Inhibition: 4%; Z score: -0.48

Q: Which “% Inhibition” value does the source give for `COc1cc(F)c(F)cc1NC(=O)NCCO[C@@H]1CCCCO1` here?
A: The value was -1%.

Q: And the Z score?
A: The Z score was 0.12.

Q: Which results are given for `CCc1cccc(NC(=O)Cn2cnc3nc(N4CCOCC4)sc3c2=O)c1`?
A: % Inhibition: -11%; Z score: 1.79

Q: What does the source list for `Oc1c([C@@H](c2ccccn2)N2CCCC2)ccc2cccnc12`?
A: % Inhibition: 36%; Z score: -6.9

Q: Which results are given for `CCc1ccc(C(=O)N2C[C@H]3COCC[C@@]3(O)[C@@H]3COCC[C@@H]32)[nH]1`?
A: % Inhibition: -5%; Z score: 0.75

Q: Which “% Inhibition” value does the source give for `CC(C)(C)c1ccc(C(=O)N2CCC([C@H]3CCNC3)CC2)nc1` here?
A: Its value is -8%.

Q: And the Z score?
A: Its Z score is 1.13.

Q: What does the source list for `CCc1cnc(N2CCN(C(=O)c3ccnc(C4CC4)n3)CC2)s1`?
A: % Inhibition: -6%; Z score: 0.75

Q: For `CCCCNCc1cccn1-c1ccccc1`, which “% Inhibition” value is on record?
A: Its value is -3%.

Q: And the Z score?
A: Its Z score is 0.37.

Q: `Cc1cc(CN[C@@H](C)c2ccc3c(c2)OCCO3)c(C)n1-c1ccnn1C(C)C` was tested. Which “% Inhibition” value did it give?
A: The value was 12%.

Q: What about the Z score of the same molecule?
A: The Z score was -1.46.

Q: `COc1cc2ncc3c(-c4ccccc4)n[nH]c3c2cc1OC` was tested. Which “% Inhibition” value did it give?
A: Its value is 9%.

Q: What about the Z score of the same molecule?
A: Its Z score is -0.99.

Q: What does the source list for `COCc1ccc([C@@H]2CCCN2Cc2cnns2)o1`?
A: % Inhibition: -7%; Z score: 1.19

Q: What does the source list for `Cc1ccc2[nH]c(CCNC(=O)[C@H]3CCCN(C(=O)N(C)C)C3)nc2c1`?
A: % Inhibition: -1%; Z score: 0.19

Q: What does the source list for `CC(=O)N1CC2(CCN(c3cc(C)nc4ccccc34)CC2)C[C@H]1C(=O)O`?
A: % Inhibition: -3%; Z score: 0.49

Q: `Cn1cc(CNC(=O)c2cccc(S(=O)(=O)N3CCCOCC3)c2)cn1` was tested. Which “% Inhibition” value did it give?
A: Its value is 10%.

Q: What about the Z score of the same molecule?
A: The Z score was -2.02.

Q: Which “% Inhibition” value does the source give for `O=C(C[C@H]1CNCCO1)Nc1ccc(Oc2ccccc2)cc1` here?
A: Its value is -16%.

Q: And the Z score?
A: The Z score was 1.43.

Q: How did the “% Inhibition” value turn out when `Cn1cc(CNC(=O)NCCC(=O)Nc2ccccc2)cn1` was run?
A: The value was 0%.

Q: What about the Z score of the same molecule?
A: The Z score was -0.09.

Q: Which “% Inhibition” value does the source give for `OCc1cc(-c2cc3ccccc3s2)ccn1` here?
A: Its value is -16%.

Q: What about the Z score of the same molecule?
A: Its Z score is 2.32.

Q: `Cc1ccc2oc(CN(Cc3cc(F)ccc3F)C(=O)c3cccc(F)c3F)nc2c1` was tested. Which “% Inhibition” value did it give?
A: The value was -11%.

Q: What about the Z score of the same molecule?
A: Its Z score is 1.1.

Q: With `O=C(c1cccc(Cl)c1)N(CCc1cccs1)C1CCOCC1` as the molecule, how does the “% Inhibition” value read?
A: Its value is -8%.

Q: What about the Z score of the same molecule?
A: Its Z score is 1.28.

Q: For `COc1c(C)cnc(Cn2cc(-c3nnco3)ccc2=O)c1C`, which “% Inhibition” value is on record?
A: The value was -30%.

Q: And the Z score?
A: The Z score was 3.07.

Q: `CC(C)c1ccc([C@@H](C)CC(=O)Nc2ccc[n+]([O-])c2)cc1` was tested. Which “% Inhibition” value did it give?
A: The value was -5%.

Q: What about the Z score of the same molecule?
A: Its Z score is 0.74.

Q: With `CCCOc1ccc(-c2csc(NC(=O)c3occc3CS(=O)(=O)c3ccccc3)n2)cc1` as the molecule, how does the “% Inhibition” value read?
A: The value was -5%.

Q: What about the Z score of the same molecule?
A: The Z score was 0.76.

Q: What does the source list for `CN1CC2(C[C@H]1c1nc(-c3ccccc3)no1)CN(C(=O)c1ccncn1)C2`?
A: % Inhibition: -18%; Z score: 2.11

Q: With `Cc1ccc(-n2[nH]c(C(=O)N3CCc4ccnc(O)c4C3)cc2=O)cc1` as the molecule, how does the “% Inhibition” value read?
A: The value was 8%.

Q: What about the Z score of the same molecule?
A: Its Z score is -0.85.

Q: `CN(Cc1cc(-c2ccccc2)n[nH]1)c1cc(C2CC(O)C2)nc(N)n1` (stereo unspecified) was tested. Which “% Inhibition” value did it give?
A: The value was 7%.

Q: And the Z score?
A: The Z score was -1.1.

Q: With `O=C(c1ccn2nnnc2c1)N(CCO)Cc1nccs1` as the molecule, how does the “% Inhibition” value read?
A: The value was 1%.

Q: What about the Z score of the same molecule?
A: Its Z score is -0.17.

Q: What does the source list for `Cc1cc(C)n(NC(=O)c2cnc(C(C)C)nc2C)c(=O)c1`?
A: % Inhibition: -11%; Z score: 1.58

Q: With `COc1ccc2c(c1)N(S(=O)(=O)c1cnnn1C)CCC2` as the molecule, how does the “% Inhibition” value read?
A: The value was -7%.

Q: And the Z score?
A: Its Z score is 0.72.

Q: Which results are given for `CCc1cc(-c2cccc(C(N)=O)c2)nc(N(C)C)n1`?
A: % Inhibition: -6%; Z score: 1.17

Q: With `Nc1c(-c2ccccc2)nsc1C(=O)NCc1ccc(F)cc1` as the molecule, how does the “% Inhibition” value read?
A: The value was 37%.

Q: What about the Z score of the same molecule?
A: Its Z score is -4.77.

Q: What does the source list for `O=C(O)C[C@H]1CCCCN1Cc1ccc2cc(Cl)ccc2n1`?
A: % Inhibition: -1%; Z score: 0.27
